Results reported in patent US11178870B2 (priority 2017, dated 2021).

What was measured:
Magnaporthe grisea = type: in vivo; conditions: Table 7, Test A
Phytophthora infestans = type: in vivo; conditions: Table 7, Test F
[1] = tested on: Colletotrichum orbiculare; conditions: 250 ppm sprayed (2.5 ml/pot) before inoculation; assessed 6 to 10 days after inoculation

SMILES	control value, Test A (blast on rice) (Magnaporthe grisea)	control value, Test F (late blight on tomato) (Phytophthora infestans)	control value, Test H (anthracnose on cucumber) [1]
COc1ccc(-c2c(-n3cc(Cl)cn3)cc(Cl)c(=O)n2CC(F)F)c(Cl)c1 [Compound 239]	H (H shows the control value more than 50%)	L (L shows the control value of 50% or less)	H (H shows the control value more than 50%)
COc1ccc(-c2c(-n3cc(Cl)cn3)cc(Br)c(=O)n2CC(F)F)c(Cl)c1 [Compound 240]	L (L shows the control value of 50% or less)	L (L shows the control value of 50% or less)	H (H shows the control value more than 50%)
CCn1c(-c2ccccc2OC)c(-n2cc(Cl)cn2)cc(Br)c1=O [Compound 241]	L (L shows the control value of 50% or less)	L (L shows the control value of 50% or less)	L (L shows the control value of 50% or less)
CCn1c(-c2ccccc2OC)c(-n2cc(Cl)cn2)ccc1=O [Compound 242]	L (L shows the control value of 50% or less)	L (L shows the control value of 50% or less)	L (L shows the control value of 50% or less)
CCn1c(-c2ccccc2OC)c(-n2cc(Cl)cn2)cc(Cl)c1=O [Compound 243]	L (L shows the control value of 50% or less)	L (L shows the control value of 50% or less)	L (L shows the control value of 50% or less)
CCn1c(-c2ccccc2C)c(-n2ncc(C)c2Cl)cc(Cl)c1=O [Compound 244]	H (H shows the control value more than 50%)	L (L shows the control value of 50% or less)	H (H shows the control value more than 50%)
CCn1c(-c2ccccc2C)c(-n2ncc(C)c2Cl)cc(Br)c1=O [Compound 245]	H (H shows the control value more than 50%)	L (L shows the control value of 50% or less)	H (H shows the control value more than 50%)
CCn1c(-c2ccccc2OC)c(-n2cc(C)cn2)ccc1=O [Compound 246]	L (L shows the control value of 50% or less)	L (L shows the control value of 50% or less)	H (H shows the control value more than 50%)
CCn1c(-c2ccccc2OC)c(-n2cc(C)cn2)cc(Br)c1=O [Compound 247]	L (L shows the control value of 50% or less)	L (L shows the control value of 50% or less)	L (L shows the control value of 50% or less)
CCn1c(-c2ccccc2OC)c(-n2ncc(C)c2Cl)cc(Cl)c1=O [Compound 248]	H (H shows the control value more than 50%)	L (L shows the control value of 50% or less)	H (H shows the control value more than 50%)
CCn1c(-c2ccccc2OC)c(-n2ncc(C)c2Cl)cc(Br)c1=O [Compound 249]	L (L shows the control value of 50% or less)	L (L shows the control value of 50% or less)	L (L shows the control value of 50% or less)
CCn1c(-c2ccc(F)cc2F)c(-n2cc(F)cn2)ccc1=O [Compound 250]	H (H shows the control value more than 50%)	L (L shows the control value of 50% or less)	H (H shows the control value more than 50%)
CCn1c(-c2ccc(F)cc2F)c(-n2cc(F)cn2)cc(Cl)c1=O [Compound 251]	H (H shows the control value more than 50%)	L (L shows the control value of 50% or less)	H (H shows the control value more than 50%)
CCn1c(-c2ccc(F)cc2F)c(-n2cc(F)cn2)cc(Br)c1=O [Compound 252]	H (H shows the control value more than 50%)	L (L shows the control value of 50% or less)	H (H shows the control value more than 50%)
CCn1c(-c2c(F)cc(OC)c(I)c2F)c(-n2cc(Cl)cn2)cc(I)c1=O [Compound 253]	L (L shows the control value of 50% or less)	L (L shows the control value of 50% or less)	L (L shows the control value of 50% or less)
Cc1cnn(-c2ccc(=O)n(CC(F)F)c2-c2ccc(F)cc2F)c1 [Compound 254]	H (H shows the control value more than 50%)	L (L shows the control value of 50% or less)	H (H shows the control value more than 50%)

SMILES	control value, Test A (blast on rice) (Magnaporthe grisea)	control value, Test F (late blight on tomato) (Phytophthora infestans)	control value, Test H (anthracnose on cucumber) [1]
Cc1cnn(-c2cc(Cl)c(=O)n(CC(F)F)c2-c2ccc(F)cc2F)c1Cl [Compound 255]	H (H shows the control value more than 50%)	L (L shows the control value of 50% or less)	H (H shows the control value more than 50%)
Cc1cnn(-c2cc(Br)c(=O)n(CC(F)F)c2-c2ccc(F)cc2F)c1Cl [Compound 256]	H (H shows the control value more than 50%)	L (L shows the control value of 50% or less)	H (H shows the control value more than 50%)
CCn1c(-c2ccccc2[N+](=O)[O-])c(-n2cc(Cl)cn2)cc(Br)c1=O [Compound 257]	L (L shows the control value of 50% or less)	L (L shows the control value of 50% or less)	H (H shows the control value more than 50%)
CCn1c(-c2ccccc2[N+](=O)[O-])c(-n2cc(Cl)cn2)cc(Cl)c1=O [Compound 258]	L (L shows the control value of 50% or less)	L (L shows the control value of 50% or less)	L (L shows the control value of 50% or less)
CCn1c(-c2ccccc2F)c(-n2cc(C)cn2)ccc1=O [Compound 259]	L (L shows the control value of 50% or less)	L (L shows the control value of 50% or less)	L (L shows the control value of 50% or less)
CCn1c(-c2ccccc2F)c(-n2cc(C)cn2)cc(Br)c1=O [Compound 260]	L (L shows the control value of 50% or less)	L (L shows the control value of 50% or less)	L (L shows the control value of 50% or less)
CCn1c(-c2c(F)cc(F)cc2F)c(-n2cnc(Cl)n2)cc(Cl)c1=O [Compound 261]	H (H shows the control value more than 50%)	L (L shows the control value of 50% or less)	H (H shows the control value more than 50%)
CCn1c(-c2c(F)cc(F)cc2F)c(-n2cnc(Cl)n2)cc(Br)c1=O [Compound 262]	H (H shows the control value more than 50%)	L (L shows the control value of 50% or less)	H (H shows the control value more than 50%)
CCn1c(-c2ccccc2F)c(-n2ncc(C)c2Cl)cc(Cl)c1=O [Compound 263]	H (H shows the control value more than 50%)	L (L shows the control value of 50% or less)	H (H shows the control value more than 50%)
CCn1c(-c2ccccc2F)c(-n2ncc(C)c2Cl)cc(Br)c1=O [Compound 264]	H (H shows the control value more than 50%)	L (L shows the control value of 50% or less)	H (H shows the control value more than 50%)
CCn1c(-c2c(F)cc(OC)cc2F)c(-n2cnc(Cl)n2)cc(Cl)c1=O [Compound 267]	H (H shows the control value more than 50%)	L (L shows the control value of 50% or less)	H (H shows the control value more than 50%)
CCn1c(-c2ccccc2Br)c(-n2cc(C)cn2)ccc1=O [Compound 268]	L (L shows the control value of 50% or less)	L (L shows the control value of 50% or less)	L (L shows the control value of 50% or less)
CCn1c(-c2ccccc2Br)c(-n2cc(C)cn2)cc(Br)c1=O [Compound 269]	H (H shows the control value more than 50%)	L (L shows the control value of 50% or less)	L (L shows the control value of 50% or less)
CCn1c(-c2ccc(F)cc2F)c(-n2ncc(C)c2Br)cc(Br)c1=O [Compound 270]	H (H shows the control value more than 50%)	L (L shows the control value of 50% or less)	H (H shows the control value more than 50%)
CCn1c(-c2ccccc2Br)c(-n2ncc(C)c2Cl)cc(Br)c1=O [Compound 271]	H (H shows the control value more than 50%)	L (L shows the control value of 50% or less)	H (H shows the control value more than 50%)
